Source: PubChem BioAssay (NCATS)
Some of the results follow. Shown are side measurements of this screen, not its main read-out; they come without a call. The list favours compounds with an active or inconclusive main result. Potencies come from curve fits of mixed quality, noted in brackets.
Tags describe the fitted curve by direction and shape.

Assay: qHTS Assay for Lipid Storage Modulators (AID 1519)
Conditions: Drosophila S3 cells, BODIPY lipid droplet/cell ratio, laser cytometry; measured here: cell number channel AC50; cells loaded with oleic acid
In short: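 Cells seeded at 5,000 per well were treated with compounds over a concentration series and loaded with oleic acid (400 uM, as added). Lipid droplet fluorescence (488 nm excitation, 500-530 nm channel) was read by laser-scanning cytometry and normalized to 20 uM Triacsin C.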
In the case of COc1cccc(-c2cc(NCc3cccnc3)ncn2)c1, the AC50 is reported as 3.16 µM [rising, full curve].
With COc1ccccc1CNc1nc(-c2ccoc2)nc2ccccc12 the AC50 was 0.447 µM [rising, full curve, poor fit].
In the case of COc1cc2c(C(=O)c3ccccc3)c3c4c(cc(OC)c(OC)c4c2cc1OC)CCN3C, the AC50 is reported as 1 µM [rising, full curve].
With COc1ccc2[nH]cc(CCNc3ncnc4ccc(-c5c(C)noc5C)cc34)c2c1 the AC50 was 0.316 µM [rising, full curve].
With O=c1c(-c2ccc(F)c(F)c2)nc2cncnc2n1-c1ccccc1 the AC50 was 3.55 µM [rising, partial curve, poor fit].
In the case of O=c1c(-c2cc(F)cc(F)c2)nc2cnc(N3CCNCC3)nc2n1CCc1ccccc1, the AC50 is reported as 3.55 µM [rising, partial curve, poor fit].
In the case of COc1ncc2nc(CCc3ccccc3)c(=O)n(Cc3ccc(F)cc3)c2n1, the AC50 is reported as 1.41 µM [rising, full curve].
In the case of CN(C)C(=O)c1ccc(-c2nc(-n3ccnc3)c3ccccc3n2)cc1, the AC50 is reported as 0.316 µM [rising, full curve].
With O=C1c2ccccc2S(=O)(=O)N1CCCCN1CCN(c2ncccn2)CC1 the AC50 was 12.6 µM [rising, partial curve].
In the case of O=c1cnc2cnc(Oc3ccccc3)nc2n1C[C@H]1CCCO1, the AC50 is reported as 0.00501 µM [rising, full curve, poor fit].
With COc1ccc2c(c1OC)C(Cc1ccccc1)N1CCc3cc4c(cc3C1C2)OCO4 (centres undefined) the AC50 was 1.41 µM [rising, full curve].
In the case of c1ccc(Nc2nc(-c3ccc4c(c3)OCO4)nc3ccccc23)cc1, the AC50 is reported as 0.0224 µM [rising, full curve].
In the case of COc1ccccc1CNc1nc(-c2ccc(N(C)C)cc2)nc2ccccc12, the AC50 is reported as 39.8 µM [falling, single point].
For CC(C)N=c1cc2n(-c3ccc(Cl)cc3)c3ccccc3nc-2cc1Nc1ccc(Cl)cc1, the AC50 was 12.6 µM [falling, partial curve].
With O[C@H](CCCN1CCN(c2ncc(F)cn2)CC1)c1ccc(F)cc1 the AC50 was 12.6 µM [rising, partial curve, poor fit].
With COc1cccc(Cn2c(=O)c(-c3ccc(Cl)cc3)nc3cnc(N4CCNCC4)nc32)c1 the AC50 was 25.1 µM [falling, single point].
With CCNc1ncc2nc(-c3cn(C)c4ccccc34)c(=O)n(Cc3cccs3)c2n1 the AC50 was 0.562 µM [rising, full curve, poor fit].
With Cc1ccccc1-c1ccc2ncnc(N3CCOCC3)c2c1 the AC50 was 1.58 µM [rising, partial curve].
With COc1cc2c(C)c3c4c(cc(OC)c(OC)c4c2cc1OC)CCN3C the AC50 was 7.08 µM [rising, full curve].
With COc1ccc(-c2ccc(N)[n+](CCCC(=O)O)n2)cc1 the AC50 was 14.1 µM [falling, partial curve, poor fit].
For CSc1cc2c(cc1C(F)(F)F)N(C(=O)Nc1cccnc1)CC2, the AC50 was 1.41 µM [rising, full curve].
For Cc1cnc(CNc2nc(-c3ccoc3)nc3ccccc23)cn1, the AC50 was 2 µM [rising, full curve, poor fit].
For COCCn1c(=O)c(-c2ccccc2)nc2cnc(Oc3cccc(Cl)c3)nc21, the AC50 was 5.62 µM [rising, partial curve, poor fit].
In the case of CC[C@]1(O)C[C@@H]2CN(CCc3c([nH]c4ccccc34)[C@](C(=O)OC)(c3cc4c(cc3OC)N(C=O)[C@H]3[C@@](O)(C(=O)OC)[C@H](C(=O)OC)[C@@]5(CC)C=CCN6CC[C@]43[C@H]65)C2)C1, the AC50 is reported as 2 µM [rising, full curve, poor fit].
With COCCn1c(=O)c(-c2cccs2)nc2cnc(Oc3ccccc3)nc21 the AC50 was 0.447 µM [rising, full curve].
For COc1ccc(CNc2ncncc2-c2ccccc2C)c(OC)c1, the AC50 was 6.31 µM [rising, partial curve, poor fit].
For Clc1ccccc1-c1nc(Nc2ccncc2)c2ccccc2n1, the AC50 was 0.224 µM [rising, full curve, poor fit].
With O=S(=O)(c1ccccc1)N1CCC[C@@]2(CCN(Cc3ccccc3)C2)C1 the AC50 was 8.91 µM [rising, single point].
In the case of COc1ccc(-c2oc3cc(OC)c(OC(C)=O)c(OC)c3c(=O)c2OC)cc1OC(C)=O, the AC50 is reported as 2.51 µM [rising, full curve].

Same assay, conditions: Drosophila S3 cells, BODIPY lipid droplet/cell ratio, laser cytometry; measured here: lipid (BODIPY) channel AC50; cells loaded with oleic acid
With CN(C)c1ncc2nc(-c3ccc(Cl)cc3)c(=O)n(Cc3cccs3)c2n1 the AC50 was 3.16 µM [rising, single point].
For FC(F)(F)c1ccccc1-c1cncnc1NCc1cccnc1, the AC50 was 0.631 µM [rising, full curve].
With COc1cccc(-c2nccc(NCc3ccccc3OC)n2)c1 the AC50 was 1.78 µM [rising, partial curve, poor fit].
With CC(C)=CCc1c2c(c3occ(-c4ccc(O)c(O)c4)c(=O)c3c1O)C=CC(C)(C)O2 the AC50 was 31.6 µM [falling, single point].
With CC(C)=CCCC(C)CCO (centres undefined) the AC50 was 39.8 µM [rising, single point].
For O=C(c1cccc(F)c1)N1CCC2(CCCN(Cc3cc(C(F)(F)F)cc(C(F)(F)F)c3)C2)CC1, the AC50 was 0.316 µM [rising, partial curve].
For CN(C)c1ncc2nc(CCc3ccccc3)c(=O)n(Cc3ccc(F)cc3)c2n1, the AC50 was 0.447 µM [rising, partial curve].
With CC(=O)NCCNc1ccnc(-c2ccccc2C)n1 the AC50 was 1.58 µM [rising, full curve].
With CCNc1ncc2nc(-c3ccc(OC)cc3)c(=O)n(CCc3ccccc3)c2n1 the AC50 was 0.0794 µM [rising, full curve].
With O=C(NC1CCN(Cc2ccccc2)CC1)c1ccc(I)cc1 the AC50 was 12.6 µM [rising, partial curve].
In the case of O=S(=O)(c1ccccc1)N1CCC[C@@]2(CCN(c3cccc(-c4ccccc4)c3)C2)C1, the AC50 is reported as 0.0251 µM [rising, full curve, poor fit].
For COc1cccc(-c2cc(NCc3cccnc3)ncn2)c1, the AC50 was 2.82 µM [rising, full curve].
With COc1ccccc1CNc1nc(-c2ccoc2)nc2ccccc12 the AC50 was 0.447 µM [rising, full curve, poor fit].
In the case of COc1cc2c(C(=O)c3ccccc3)c3c4c(cc(OC)c(OC)c4c2cc1OC)CCN3C, the AC50 is reported as 0.891 µM [rising, full curve].
With COc1ccc2[nH]cc(CCNc3ncnc4ccc(-c5c(C)noc5C)cc34)c2c1 the AC50 was 0.251 µM [rising, full curve].
With O=c1c(-c2ccc(F)c(F)c2)nc2cncnc2n1-c1ccccc1 the AC50 was 0.178 µM [rising, full curve, poor fit].
With O=c1c(-c2cc(F)cc(F)c2)nc2cnc(N3CCNCC3)nc2n1CCc1ccccc1 the AC50 was 3.16 µM [rising, partial curve, poor fit].
In the case of COc1ncc2nc(CCc3ccccc3)c(=O)n(Cc3ccc(F)cc3)c2n1, the AC50 is reported as 1 µM [rising, full curve, poor fit].
In the case of CN(C)C(=O)c1ccc(-c2nc(-n3ccnc3)c3ccccc3n2)cc1, the AC50 is reported as 0.316 µM [rising, full curve].
With O=C1c2ccccc2S(=O)(=O)N1CCCCN1CCN(c2ncccn2)CC1 the AC50 was 14.1 µM [rising, partial curve].
With O=c1cnc2cnc(Oc3ccccc3)nc2n1C[C@H]1CCCO1 the AC50 was 0.00562 µM [rising, full curve, poor fit].
In the case of COc1ccc2c(c1OC)C(Cc1ccccc1)N1CCc3cc4c(cc3C1C2)OCO4 (centres undefined), the AC50 is reported as 2 µM [rising, full curve].
In the case of c1ccc(Nc2nc(-c3ccc4c(c3)OCO4)nc3ccccc23)cc1, the AC50 is reported as 0.0251 µM [rising, full curve, poor fit].
For COc1ccccc1CNc1nc(-c2ccc(N(C)C)cc2)nc2ccccc12, the AC50 was 39.8 µM [falling, single point].
For CC(C)N=c1cc2n(-c3ccc(Cl)cc3)c3ccccc3nc-2cc1Nc1ccc(Cl)cc1, the AC50 was 14.1 µM [falling, partial curve].
With O[C@H](CCCN1CCN(c2ncc(F)cn2)CC1)c1ccc(F)cc1 the AC50 was 14.1 µM [rising, partial curve, poor fit].
With COc1cccc(Cn2c(=O)c(-c3ccc(Cl)cc3)nc3cnc(N4CCNCC4)nc32)c1 the AC50 was 28.2 µM [falling, single point].
With CCNc1ncc2nc(-c3cn(C)c4ccccc34)c(=O)n(Cc3cccs3)c2n1 the AC50 was 0.708 µM [rising, full curve].
With Cc1ccccc1-c1ccc2ncnc(N3CCOCC3)c2c1 the AC50 was 1.58 µM [rising, full curve].
In the case of COc1cc2c(C)c3c4c(cc(OC)c(OC)c4c2cc1OC)CCN3C, the AC50 is reported as 6.31 µM [rising, full curve].
In the case of COc1ccc(-c2ccc(N)[n+](CCCC(=O)O)n2)cc1, the AC50 is reported as 14.1 µM [falling, single point].
For CSc1cc2c(cc1C(F)(F)F)N(C(=O)Nc1cccnc1)CC2, the AC50 was 1.58 µM [rising, full curve].
In the case of Cc1cnc(CNc2nc(-c3ccoc3)nc3ccccc23)cn1, the AC50 is reported as 1.41 µM [rising, full curve].
With COCCn1c(=O)c(-c2ccccc2)nc2cnc(Oc3cccc(Cl)c3)nc21 the AC50 was 0.355 µM [rising, partial curve, poor fit].
In the case of CC[C@]1(O)C[C@@H]2CN(CCc3c([nH]c4ccccc34)[C@](C(=O)OC)(c3cc4c(cc3OC)N(C=O)[C@H]3[C@@](O)(C(=O)OC)[C@H](C(=O)OC)[C@@]5(CC)C=CCN6CC[C@]43[C@H]65)C2)C1, the AC50 is reported as 7.94 µM [rising, partial curve, poor fit].
